According to PubChem BioAssay AID1508624 (National Center for Advancing Translational Sciences (NCATS), 2021):
The whole screen tested about 48,000 compounds, of which about 120 (0.25%) were called active. The shares of active, inactive and inconclusive entries below differ from those in the screen. Calls come from the whole dose curve; as a rule, active = well fitted activation curve with a large enough effect; inconclusive = small, poorly fitted or top-dose-only effect, or another doubt; inactive = no such curve, though single readings can be large or run the other way. Where the call is inconclusive, the potency comes from a doubtful curve fit.
Potency is the fitted concentration of half-maximal effect; tags give direction and shape of the fitted curve.

Assay: Primary qHTS for Identification of Small Molecule Activators of Huntingtin-Antisense Promoter Activity; note: nearly all actives have a fitted effect of over 55% in size
Conditions: HEK293 HTT-AS promoter firefly luciferase reporter, 24 h; activity change, positive = activation: at 57.5 µM (top of the series), percent change from vehicle, -100% = no light
Summary of the method: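 HEK293 cells carrying firefly luciferase reporters were seeded at 2,500 per well in Opti-MEM and cultured for 24 h. They were then treated with compounds at up to 57.5 uM final for 24 h at 37 degrees C before Dual-Glo luminescence readout.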
In the case of `COc1ccc(NCc2cc3cc4c(cc3n(CC(=O)Nc3cc(C)cc(C)c3)c2=O)OCO4)cc1`, the activity change, positive = activation is reported as inconclusive: 11.1% [activator]. In the case of `C[N+](C)([O-])CCNc1ccc(NCC[N+](C)(C)[O-])c2c1C(=O)c1c(O)ccc(O)c1C2=O`, the “activity change, positive = activation” value is reported as inactive: -23.8%. In the case of `O=C(COc1ccccc1Cl)Nc1ccc2oc(-c3ccccc3F)nc2c1`, the Potency is reported as inconclusive: 2 µM [activator, full curve]. With `Cc1ccc(NC(=O)C(NS(=O)(=O)c2ccc3c(c2)CCC(=O)N3)c2ccccc2)cc1C` (stereo not drawn) the Potency was inconclusive: 3.55 µM [activator, partial curve, poor fit]. With `COc1ccc(-c2cn3nc(N4CCC(C(=O)Nc5cccc(C)c5C)CC4)sc3n2)cc1` the “activity change, positive = activation” value was inactive: -3.6%. For `CCCS(=O)(=O)Nc1ccc(F)c(C(=O)c2c[nH]c3ncc(-c4ccc(Cl)cc4)cc23)c1F`, the “activity change, positive = activation” value was inactive: 5.68%. With `COc1ccc(-c2cn3nc(N4CCC(C(=O)Nc5cccc(Cl)c5)CC4)sc3n2)cc1` the Potency was inconclusive: 7.94 µM [activator, partial curve, poor fit]. In the case of `CCOc1ccc(-c2nc(Cn3c(=O)cc(-c4ccccc4)c4c(C)nn(C)c43)c(C)o2)cc1`, the Potency is reported as inconclusive: 15.8 µM [activator, partial curve, poor fit]. With `CNc1ccc(-c2nc(-c3ccco3)no2)cc1[N+](=O)[O-]` the Potency was inconclusive: 0.282 µM [activator, full curve, poor fit]. In the case of `COc1cccc(CC(=O)Nc2ccc(-c3nc4ccccc4s3)cc2)c1`, the Potency is reported as inconclusive: 1.12 µM [activator, partial curve, poor fit]. For `COc1ccccc1C1Nc2c(sc3nc(C)cc(C)c23)C(=O)N1c1ccccc1` (stereo not drawn), the Potency was inconclusive: 2 µM [activator, full curve, poor fit]. In the case of `COc1ccc(OCC(=O)Nc2cc(-c3nc4ccccc4s3)ccc2C)cc1`, the Potency is reported as inconclusive: 2.82 µM [activator, full curve]. For `Fc1ccc(-n2ncc3c(N4CCC(Cc5ccccc5)CC4)ncnc32)cc1`, the “activity change, positive = activation” value was inactive: 0%. With `Cc1cccc(CCNC(=O)c2cnc3c(C)cccn3c2=O)c1` the Potency was inconclusive: 2 µM [activator, full curve, poor fit]. With `CC(C)Cn1cc(NC(=O)Nc2cccc(C(F)(F)F)c2)c2ccccc2c1=O` the “activity change, positive = activation” value was inactive: -31.3%. In the case of `CC(C)CC(=O)Nc1nc2c(s1)CC(C(C)(C)C)CC2` (stereo not drawn), the Potency is reported as inconclusive: 1.58 µM [activator, full curve, poor fit]. For `COc1ccc(-n2nc3c(N4CCCC(C(=O)NCc5ccc(C)cc5)C4)nnc(C)c3c2C)cc1` (stereo not drawn), the “activity change, positive = activation” value was inactive: -64.3%. For `Cc1c(-c2nnc(SCC(=O)Nc3ccccc3F)o2)nnn1-c1ccc(F)cc1`, the Potency was inconclusive: 10 µM [activator, partial curve]. For `O=C(Nc1cccc(Cl)c1)c1ccc2nc(CCc3ccccc3)oc2c1`, the Potency was inconclusive: 2 µM [activator, single point]. For `COc1ccc2nc(NC(=O)Nc3ccccc3)sc2c1`, the Potency was inconclusive: 0.631 µM [activator, full curve, poor fit]. With `Cc1ccc(C2=Nc3ccccc3N(CC(=O)Nc3ccccc3F)C(=O)C2)cc1C` the Potency was inconclusive: 10 µM [activator, partial curve, poor fit]. With `COCCNc1ccc(-c2nc(-c3ccco3)no2)cc1[N+](=O)[O-]` the Potency was inconclusive: 0.891 µM [activator, partial curve, poor fit]. For `O=C(NCCc1csc2nc(-c3ccccc3F)nn12)c1ccco1`, the activity change, positive = activation was inconclusive: -80.7% [activator]. With `COc1ccc(NC(=O)c2noc3c2CCCC3)cc1Cl` the Potency was inconclusive: 1 µM [activator, full curve, poor fit]. For `Cc1cccc(CCNC(=O)c2sc3nc4n(c(=O)c3c2C)CCCC4)c1`, the Potency was inconclusive: 7.94 µM [activator, partial curve]. In the case of `Cc1cc2nn(-c3ccccc3)nc2cc1NC(=O)c1cccc2c(Cl)cccc12`, the Potency is reported as inconclusive: 14.1 µM [activator, partial curve]. In the case of `Cc1ccc(-c2nc3sc(CCNC(=O)c4ccc(Br)o4)c(C)n3n2)cc1`, the Potency is reported as inconclusive: 2.82 µM [activator, partial curve, poor fit]. For `Cc1ccc(NC(=O)NCCc2c(C)nn(C)c2C)cc1Cl`, the Potency was inconclusive: 14.1 µM [activator, partial curve, poor fit]. With `Nc1ccc([N+](=O)[O-])c(C(F)(F)F)c1` the “activity change, positive = activation” value was inactive: -5.57%. In the case of `CCOc1ccc(-c2nn(CC(=O)NC3CCCC3)c3c2cnc2ccc(F)cc23)cc1`, the Potency is reported as inconclusive: 17.8 µM [activator, partial curve, poor fit]. In the case of `CCN(CC)c1ccc(-c2nc(-c3ccccc3C)no2)cc1[N+](=O)[O-]`, the Potency is reported as inconclusive: 3.98 µM [activator, single point]. With `O=C(NCCc1ccccc1Cl)c1ccc2c(c1)nc1n2CCCCC1` the “activity change, positive = activation” value was inactive: -70.4%. For `CCc1cc(C(=O)Nc2cnn(Cc3ccccc3C)c2)no1`, the Potency was inconclusive: 7.08 µM [activator, partial curve]. For `Cc1ccc2sc(NC(=O)c3ccc4c(c3)OCCO4)nc2c1C`, the Potency was inconclusive: 7.08 µM [activator, partial curve]. In the case of `COC(=O)c1nnn(-c2cccc(C)c2)c1C(=O)OC`, the activity change, positive = activation is reported as inconclusive: 34.9% [activator]. With `Cc1ccc(-c2cn3c(n2)sc2cc(C(=O)NC(C)C45CC6CC(CC(C6)C4)C5)ccc23)cc1` (stereo not drawn) the Potency was inconclusive: 25.1 µM [activator, single point]. For `C[C@H]1O[C@@H](O[C@H]2CC[C@@]3(C)[C@H](CC[C@@H]4[C@@H]3C[C@@H](O)[C@]3(C)[C@@H](C5=CC(=O)OC5)CC[C@]43O)C2)C[C@H](O)[C@@H]1O[C@H]1C[C@H](O)[C@H](O[C@H]2C[C@H](O)[C@H](O[C@@H]3O[C@H](CO)[C@@H](O)[C@H](O)[C@H]3O)[C@@H](C)O2)[C@@H](C)O1`, the activity change, positive = activation was inconclusive: -46.8% [activator]. For `C1=CCOCc2cc(ccc2OCCN2CCCC2)Nc2nccc(n2)-c2cccc(c2)OCC1`, the Potency was inconclusive: 7.69 µM [activator, partial curve].
